Experimental data as given in the supplement of paper PMC5790926.

Test system: E-S-FLU (Zaire C15 EBOV-GP pseudotyped S-FLU) in MDCK-SIAT1 cells
Assay: IC50 inhibition of E-S-FLU (EBOV-GP pseudotyped influenza) infection
Protocol: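 MDCK-SIAT1 cells were pretreated for 3 h with two-fold drug dilutions, then exposed overnight to a single-cycle eGFP reporter particle coated with the named glycoprotein; eGFP read on fixed cells. Mostly one titration per compound; only inhibitors are listed.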

SMILES	IC50 inhibition of E-S-FLU
C=CCN1CCc2cc(O)c(O)cc2C(c2ccccc2)C1 (stereo not drawn)	132 µM
CC(C)(N)c1ncc(-c2ccc(OC(F)(F)F)cc2)[nH]1	53 µM
CC(C)[C@H](NC(=O)OCc1ccccc1)C(=O)N[C@H](C=O)Cc1ccccc1	3.81 µM
CC1CCN(CC[C@H]2CCCN2S(=O)(=O)c2cccc(O)c2)CC1	38.5 µM
CCN(CC)CCOc1ccc(Nc2ncc3cc(-c4c(Cl)cccc4Cl)c(=O)n(C)c3n2)cc1	0.2 µM
CCN(CC)Cc1ccc(C(=O)N(CCc2ccccc2OC)[C@@H]2CCNC2)cc1	19.1 µM
CN(C)CCCc1cc(C(=O)Nc2ccc(-c3ccncc3)cc2)ccc1O	21.8 µM
CN1CCC[C@@H]1Cc1c[nH]c2ccc(Nc3ncccc3[N+](=O)[O-])cc12	44.3 µM
CN1CCN(c2nc3cc(C(F)(F)F)ccc3n3cccc23)CC1	11.8 µM
COC(=O)C1=C(C)NC(C)=C(C(=O)OC)C1c1cccc(NC(=O)NCCCN2CCC(c3cccc(OC)c3)CC2)c1	14.7 µM
COC(=O)N1CCN(C(=O)Cc2ccc(Cl)c(Cl)c2)C(CN2CCCC2)C1 (stereo not drawn)	71 µM
COc1cc2nc(N3CCCN(C)CC3)nc(NC3CCN(Cc4ccccc4)CC3)c2cc1OC	1 µM
COc1ccc(/C=C/c2nc(NCCCN(C)C)c3ccccc3n2)cc1	5.5 µM
COc1ccc(NC(=O)c2ccc(-c3ccc(-c4noc(C)n4)cc3C)cc2)cc1N1CCN(C)CC1	4.5 µM
COc1ccc2c(c1)CC[C@@H]1[C@@H]2CC[C@]2(C)[C@@H](NCCCCCCN3C(=O)CCC3=O)CC[C@@H]12	3.9 µM
COc1ccccc1CNC1CCCNC1c1ccccc1 (stereo not drawn)	29.7 µM
COc1ccccc1CN[C@H]1CCCN[C@H]1c1ccccc1	34.2 µM
Cc1cc2nc(NCCCO)n(CC(=O)c3cc(C(C)(C)C)c(O)c(C(C)(C)C)c3)c2cc1C	12.7 µM
Cn1c(=O)c(-c2c(Cl)cccc2Cl)cc2cnc(Nc3ccc(N4CCOCC4)cc3)nc21	0.6 µM
Cn1cc(C(=O)OCC2CCN(CCNS(C)(=O)=O)CC2)c2ccccc21	145 µM
Fc1ccc(C(OCCN2CCN(CCCc3ccccc3)CC2)c2ccc(F)cc2)cc1	15.7 µM
O=C(NOCC1CC1)c1cc(Br)c(F)c(F)c1Nc1ccc(I)cc1Cl	23 µM
c1cc(CN2CCCCC2)cc(OCCCNc2nc3ccccc3s2)c1	19.2 µM
CC(C)(C)[C@]1(O)CCN2C[C@H]3c4ccccc4CCc4cccc(c43)[C@@H]2C1 (racemic) [(±)-Butaclamol hydrochloride]	27.4 µM
COc1cc2c(cc1O)CC[C@@H]1[C@@H]2CC[C@]2(C)[C@@H](O)CC[C@@H]12 [2-methoxy estradiol]	48.8 µM
NC(N)=NC(=O)c1nc(Cl)c(N2CCCCCC2)nc1N [5-(N,N-hexamethylene) amiloride]	16.7 µM

SMILES	IC50 inhibition of E-S-FLU
CCN(c1nc(N)c(C(=O)NC(=N)N)nc1Cl)C(C)C [5-(N-Ethyl-N-isopropyl) amiloride (EIPA)]	17.8 µM
NC(Cc1cc(O)c(O)cc1O)C(=O)O (stereo not drawn) [6-Hydroxy-DL-DOPA]	81.4 µM
CC1=C(/C=C/C(C)=C/C=C/C(C)=C\C(=O)O)C(C)(C)CCC1 [13-cis-retinoic acid]	123 µM
CC(C)(C)[C@]1(O)CCN2C[C@H]3c4ccccc4CCc4cccc(c43)[C@@H]2C1 [(+)-Butaclamol hydrochloride]	27 µM
COc1ccc(CCN(C)CCCC(C#N)(c2cc(OC)c(OC)c(OC)c2)C(C)C)cc1OC (stereo not drawn) [(±)-Methoxyverapamil HCl]	52.5 µM
CN1CCN(C2Cc3ccccc3Sc3ccc(Cl)cc32)CC1 (stereo not drawn) [(±)-Octoclothepin maleate]	7.7 µM
CC(C)NCC(O)COc1cccc2ccccc12 (stereo not drawn) [(±)-Propranolol HCl]	99.8 µM
NCCNS(=O)(=O)c1cccc2c(Cl)cccc12 [A3 hydrochloride]	47 µM
CC(C)(C)c1ccc(/C=C/C(=O)Nc2ccc3c(c2)OCCO3)cc1 [AMG 9810]	34.8 µM
c1ccc(C(NCCNC(c2ccccc2)c2ccccc2)c2ccccc2)cc1 [AMN082]	16.5 µM
Clc1ccccc1CNCC1CCC(CNCc2ccccc2Cl)CC1 (stereo not drawn) [AY9944]	7.81 µM
CC(=O)c1ccc2c(c1)N(CCCN(C)C)c1ccccc1S2 [Acepromazine maleate]	24.6 µM
CC(N)C(=O)OC(C)(C)Cc1ccc(Cl)cc1 (stereo not drawn) [Alaproclate hydrochloride]	30 µM
CN1[C@@H]2CC[C@H]1C[C@@H](OC(c1ccccc1)c1ccccc1N)C2 (stereo partly drawn) [Aminobenztropine]	23 µM
CCCCc1oc2ccccc2c1C(=O)c1cc(I)c(OCCN(CC)CC)c(I)c1 [Amiodarone hydrochloride]	2.04 µM
CN(C)CCC=C1c2ccccc2CCc2ccccc21 [Amitriptyline hydrochloride]	18.8 µM
Clc1ccc2c(c1)C(N1CCNCC1)=Nc1ccccc1O2 [Amoxapine]	18.6 µM
O=c1cc(-c2ccc(O)cc2)oc2cc(O)cc(O)c12 [Apigenin]	67.4 µM
CN1CCc2cccc3c2[C@H]1Cc1ccc(O)c(O)c1-3 [Apomorphine HCl hemihydrate]	60.4 µM
CCN(CC)CCCN(c1ccccc1)C1Cc2ccccc2C1 [Aprindine hydrochloride]	10.6 µM
CCOC(=O)c1c(CSc2ccccc2)n(C)c2cc(Br)c(O)c(CN(C)C)c12 [Arbidol]	5.17 µM
O=C(O)C1=CC(=C(c2ccc(O)c(C(=O)O)c2)c2ccc(O)c(C(=O)O)c2)C=CC1=O [Aurintricarboxylic acid]	26.6 µM
CC[C@H]1OC(=O)[C@H](C)[C@@H](O[C@H]2C[C@@](C)(OC)[C@@H](O)[C@H](C)O2)[C@H](C)[C@@H](O[C@@H]2O[C@H](C)C[C@H](N(C)C)[C@H]2O)[C@](C)(O)C[C@@H](C)CN(C)[C@H](C)[C@@H](O)[C@]1(C)O [Azithromycin]	6.7 µM
COc1ccc(-c2cc3ncc(C)n3c(Nc3ncccc3C(N)=O)n2)cc1OC [BAY 61-3606 hydrochloride hydrate]	12.8 µM
O=C1/C(=C/c2ccccc2)C[C@@]2(O)[C@H]3Cc4ccc(O)c5c4[C@@]2(CCN3CC2CC2)[C@H]1O5 [BNTX maleate salt hydrate]	6.9 µM
COc1ccccc1N1CCN(CCCCNC(=O)c2ccc3ccccc3c2)CC1 [BP 897]	34.3 µM

SMILES	IC50 inhibition of E-S-FLU
c1ccc2sc(C3(N4CCCCC4)CCCCC3)cc2c1 [BTCP hydrochloride]	41.4 µM
CC(N)Cc1c[nH]c2ccc(OCc3cccs3)cc12 (stereo not drawn) [BW723C86]	22.4 µM
COc1cccc(OC)c1OCCNCC1CSc2ccccc2O1 (stereo not drawn) [Benoxathian hydrochloride]	61.7 µM
CN1[C@@H]2CC[C@H]1C[C@@H](OC(c1ccccc1)c1ccccc1)C2 [Benztropine mesylate]	9.6 µM
CN1[C@@H]2CC[C@H]1C[C@@H](OC(c1ccccc1)c1ccccc1)C2 [Benztropine]	9.76 µM
CC(C)COCC(CN(Cc1ccccc1)c1ccccc1)N1CCCC1 (stereo not drawn) [Bepridil]	2.68 µM
CC(C)NCC(O)COc1ccc(CCOCC2CC2)cc1 (stereo not drawn) [Betaxolol hydrochloride]	81.8 µM
OC(CCN1CCCCC1)(c1ccccc1)C1CC2C=CC1C2 (stereo not drawn) [Biperiden hydrochloride]	34.8 µM
CC(C)NCC(O)COc1ccc(COCCOC(C)C)cc1 (stereo not drawn) [Bisoprolol hemifumarate]	86.9 µM
COc1cc(Nc2c(C#N)cnc3cc(OCCCN4CCN(C)CC4)c(OC)cc23)c(Cl)cc1Cl [Bosutinib]	3.53 µM
CCc1cccc(N(C)C(=N)Nc2cccc3ccccc23)c1 [CNS-1102]	53.3 µM
CCN(CC)CCOCCOC(=O)C1(c2ccccc2)CCCC1 [Carbetapentane citrate]	48 µM
CCN(CC)CCn1c(=O)c(Cc2ccc(OC)cc2)nc2ccccc21 [Caroverine hydrochloride]	71.3 µM
COc1ccccc1OCCNCC(O)COc1cccc2[nH]c3ccccc3c12 (stereo not drawn) [Carvedilol]	12.7 µM
CN(C)CCCN1c2ccccc2Sc2ccc(Cl)cc21 [Chlorpromazine hydrochloride]	17.3 µM
CN(C)CC/C=C1/c2ccccc2Sc2ccc(Cl)cc21 [Chlorprothixene hydrochloride]	12.6 µM
c1ccc(C2(c3ccccc3)CC2C2=NCCN2)cc1 (stereo not drawn) [Cibenzoline succinate]	107 µM
CC[C@H]1OC(=O)[C@H](C)[C@@H](O[C@H]2C[C@@](C)(OC)[C@@H](O)[C@H](C)O2)[C@H](C)[C@@H](O[C@@H]2O[C@H](C)C[C@H](N(C)C)[C@H]2O)[C@](C)(OC)C[C@@H](C)C(=O)[C@H](C)[C@@H](O)[C@]1(C)O [Clarithromycin]	14 µM
Clc1ccc(Cn2c(CN3CCCC3)nc3ccccc32)cc1 [Clemizole hydrochloride]	110 µM
CCN(CC)CCOc1ccc(C(=C(Cl)c2ccccc2)c2ccccc2)cc1 [Clomiphene]	0.35 µM
CN(C)CCCN1c2ccccc2CCc2ccc(Cl)cc21 [Clomipramine hydrochloride]	13.9 µM
CN1CCN(C2=Nc3cc(Cl)ccc3Nc3ccccc32)CC1 [Clozapine]	26.1 µM
CN(C)CCC=C1c2ccccc2C=Cc2ccccc21 [Cyclobenzaprine hydrochloride]	20.3 µM
CN1CCC(=C2c3ccccc3C=Cc3ccccc32)CC1 [Cyproheptadine hydrochloride]	17.4 µM
COc1cc2c(cc1O)[C@@H](Cc1ccc(O)c(Oc3ccc(C[C@@H]4c5cc(OC)c(OC)cc5CCN4C)cc3)c1)N(C)CC2 [Daurisoline]	5.1 µM
CNCCCN1c2ccccc2CCc2ccccc21 [Desipramine hydrochloride]	19.4 µM

Counter-ions that a name gives are not always drawn. Inhibition of entry of single-cycle reporter particles into MDCK-SIAT1 cells, 3 h drug pretreatment, overnight read-out. IC50, lower = stronger. No active / inactive call; only inhibitors are listed. Mostly one titration per compound.
